According to the supplement of paper PMC8728848:
Some of the results follow.

Legend:
Test in all cases: glycan array binding signal (z-score within array); higher = stronger binding
Details in all cases: glycan notation: IUPAC condensed, linker removed
[1] = molecular target: Gal(b1-4)GlcNAc(b1-3)GalNAc
Outline: (§1)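 Columns mapping to the same glycan were averaged after glycan names were converted to IUPAC-condensed notation. The data come from 3228 arrays in the Consortium for Functional Glycomics database, limited to those with an available protein sequence. Binding is reported as a within-array Z-score averaged across arrays of one protein sequence and across linkers.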

[2] = molecular target: Gal(b1-4)GlcNAc(b1-3)[Gal(b1-4)GlcNAc(b1-6)]GalNAc
Outline: as §1

[3] = molecular target: Gal(b1-4)GlcNAc(b1-6)Gal(b1-4)GlcNAc(b1-6)GalNAc
Outline: as §1

[4] = molecular target: Gal(b1-4)GlcNAc(b1-6)GalNAc
Outline: as §1

[5] = molecular target: Gal(b1-4)GlcNAc(b1-6)[Gal(b1-3)]GalNAc
Outline: as §1

[6] = molecular target: Gal3S(b1-3)GalNAc
Outline: as §1

[7] = molecular target: Gal3S(b1-3)GlcNAc
Outline: as §1

[8] = molecular target: Gal3S(b1-3)[Fuc(a1-4)]GlcNAc
Outline: as §1

[9] = molecular target: Gal3S(b1-4)Glc
Outline: as §1

[10] = molecular target: Gal3S(b1-4)Glc6S
Outline: as §1

[11] = molecular target: Gal3S(b1-4)GlcNAc
Outline: as §1

[12] = molecular target: Gal3S(b1-4)GlcNAc6S
Outline: as §1

[13] = molecular target: Gal3S6S(b1-4)GlcNAc
Outline: as §1

[14] = molecular target: Gal3S6S(b1-4)GlcNAc6S
Outline: as §1

[15] = molecular target: Gal4S(b1-4)GlcNAc
Outline: as §1

[16] = molecular target: Gal4S6S(b1-4)GlcNAc
Outline: as §1

[17] = molecular target: Gal6S(b1-4)Glc
Outline: as §1

[18] = molecular target: Gal6S(b1-4)Glc6S
Outline: as §1

[19] = molecular target: Gal6S(b1-4)GlcNAc
Outline: as §1

[20] = molecular target: GalNAc(a1-3)Gal
Outline: as §1

[21] = molecular target: GalNAc(a1-3)GalNAc
Outline: as §1

[22] = molecular target: GalNAc(b1-3)Gal(a1-4)Gal(b1-4)GlcNAc
Outline: as §1

[23] = molecular target: GalNAc(b1-3)GalNAc
Outline: as §1

[24] = molecular target: GalNAc(b1-4)GlcNAc
Outline: as §1

[25] = molecular target: Glc(a1-4)Glc
Outline: as §1

[26] = molecular target: Glc(a1-6)Glc(a1-6)Glc
Outline: as §1

[27] = molecular target: Glc(b1-4)Glc
Outline: as §1

[28] = molecular target: Glc(b1-6)Glc
Outline: as §1

[29] = molecular target: GlcA(b1-3)Gal
Outline: as §1

[30] = molecular target: GlcA(b1-6)Gal
Outline: as §1

[31] = molecular target: GlcNAc(a1-3)Gal(b1-4)GlcNAc
Outline: as §1

[32] = molecular target: GlcNAc(a1-6)Gal(b1-4)GlcNAc
Outline: as §1

[33] = molecular target: GlcNAc(b1-2)Gal(b1-3)GalNAc
Outline: as §1

[34] = molecular target: GlcNAc(b1-2)Man(a1-3)[GlcNAc(b1-2)Man(a1-6)]Man(b1-4)GlcNAc(b1-4)GlcNAc
Outline: as §1

[35] = molecular target: GlcNAc(b1-3)Gal
Outline: as §1

[36] = molecular target: GlcNAc(b1-3)Gal(b1-3)GalNAc
Outline: as §1

[37] = molecular target: GlcNAc(b1-3)Gal(b1-4)Glc
Outline: as §1

[38] = molecular target: GlcNAc(b1-3)Gal(b1-4)GlcNAc
Outline: as §1

[39] = molecular target: GlcNAc(b1-3)Gal(b1-4)GlcNAc(b1-3)Gal(b1-4)GlcNAc
Outline: as §1

[40] = molecular target: GlcNAc(b1-3)GalNAc
Outline: as §1

[41] = molecular target: GlcNAc(b1-3)[GlcNAc(b1-6)]Gal(b1-4)GlcNAc
Outline: as §1

[42] = molecular target: GlcNAc(b1-3)[GlcNAc(b1-6)]GalNAc
Outline: as §1

[43] = molecular target: GlcNAc(b1-3)[GlcNAc(b1-6)]GlcNAc(b1-4)GlcNAc
Outline: as §1

[44] = molecular target: GlcNAc(b1-4)Gal(b1-4)GlcNAc
Outline: as §1

[45] = molecular target: GlcNAc(b1-4)GlcNAc(b1-4)GlcNAc
Outline: as §1

B1: F17eG (Escherichia coli), Q9RH92 (protein)
chain: MTNFYKVFLAVFILVCCNISHAAVSFIGSTENDVGPSQSSYSRTHAMDNLPFVYNTGYNIGYQNANVWRISGGFCVGLDGKVDLPVVGSLDGQSIYGLTEEVGLLIWMGDTNYSRGTAMSGNSWENVFSGWCVGNYVSTQGLSVHVRPVILKRNSSAQYSVQKTSIGSIRMRPYNGSSAGSVQTTVNFSLNPFTLNDTVTSCRLLTPSAVNVSLAAISAGQLPSSGDEVVAGTTSLKLQCDAGVTVWATLTDATTPSNRSDILTLTGASTATGVGLRIYKNTDSTPLKFGPDSPVKGNENQWQLSTGTETSPSVRLYVKYVNTGEGINPGTVNGISTFTFSYQ
glycan array binding signal (z-score) [1]: -0.312
glycan array binding signal (z-score) [2]: -0.313
glycan array binding signal (z-score) [3]: -0.316
glycan array binding signal (z-score) [4]: -0.219
glycan array binding signal (z-score) [5]: -0.31
glycan array binding signal (z-score) [6]: -0.13
glycan array binding signal (z-score) [7]: -0.314
glycan array binding signal (z-score) [8]: -0.288
glycan array binding signal (z-score) [9]: -0.145
glycan array binding signal (z-score) [10]: -0.314
glycan array binding signal (z-score) [11]: -0.259
glycan array binding signal (z-score) [12]: -0.301
glycan array binding signal (z-score) [13]: -0.31
glycan array binding signal (z-score) [14]: 0.073
glycan array binding signal (z-score) [15]: -0.172
glycan array binding signal (z-score) [16]: -0.216
glycan array binding signal (z-score) [17]: -0.291
glycan array binding signal (z-score) [18]: -0.31
glycan array binding signal (z-score) [19]: -0.271
glycan array binding signal (z-score) [20]: -0.298
glycan array binding signal (z-score) [21]: -0.311
glycan array binding signal (z-score) [22]: -0.303
glycan array binding signal (z-score) [23]: 4.3
glycan array binding signal (z-score) [24]: -0.295
glycan array binding signal (z-score) [25]: -0.305
glycan array binding signal (z-score) [26]: -0.306
glycan array binding signal (z-score) [27]: -0.309
glycan array binding signal (z-score) [28]: -0.31
glycan array binding signal (z-score) [29]: -0.311
glycan array binding signal (z-score) [30]: -0.308
glycan array binding signal (z-score) [31]: -0.28
glycan array binding signal (z-score) [32]: -0.308
glycan array binding signal (z-score) [33]: -0.292
glycan array binding signal (z-score) [34]: -0.304
glycan array binding signal (z-score) [35]: 3.21
glycan array binding signal (z-score) [36]: 4.04
glycan array binding signal (z-score) [37]: 4.59
glycan array binding signal (z-score) [38]: 1.92
glycan array binding signal (z-score) [39]: 3.63
glycan array binding signal (z-score) [40]: 2.71
glycan array binding signal (z-score) [41]: 3.49
glycan array binding signal (z-score) [42]: 3.94
glycan array binding signal (z-score) [43]: 4.3
glycan array binding signal (z-score) [44]: 3.3
glycan array binding signal (z-score) [45]: 0.197
